Experimental data as given in PubChem BioAssay AID1347165 (National Center for Advancing Translational Sciences (NCATS), 2019).
Out of some 220,000 compounds screened, about 5,700 (2.6%) were called active. Inconclusive results, whose numbers are uncertain, are shown with a selection of clear calls. Calls come from the whole dose curve; as a rule, active = well fitted inhibition curve with a large enough effect; inconclusive = small, poorly fitted or top-dose-only effect; inactive = no such curve, though single readings can be large or run the other way. Where the call is inconclusive, the potency comes from a doubtful curve fit.
Note: nearly all actives have a fitted effect of over 70% in size.
Potency is the fitted concentration of half-maximal effect; tags give direction and shape of the fitted curve.

The molecules below were run against Lysine-specific demethylase 5B (Homo sapiens) (UniProt Q9UGL1) (assay: Primary screen for KDM5B Histone Demethylases FDH-coupled qHTS). Conditions: FDH-coupled NADH fluorescence (FDH is formaldehyde dehydrogenase); series mostly up to 57.7 µM.
UniProt Q9UGL1, sequence (Q9UGL1 whole entry, looked up): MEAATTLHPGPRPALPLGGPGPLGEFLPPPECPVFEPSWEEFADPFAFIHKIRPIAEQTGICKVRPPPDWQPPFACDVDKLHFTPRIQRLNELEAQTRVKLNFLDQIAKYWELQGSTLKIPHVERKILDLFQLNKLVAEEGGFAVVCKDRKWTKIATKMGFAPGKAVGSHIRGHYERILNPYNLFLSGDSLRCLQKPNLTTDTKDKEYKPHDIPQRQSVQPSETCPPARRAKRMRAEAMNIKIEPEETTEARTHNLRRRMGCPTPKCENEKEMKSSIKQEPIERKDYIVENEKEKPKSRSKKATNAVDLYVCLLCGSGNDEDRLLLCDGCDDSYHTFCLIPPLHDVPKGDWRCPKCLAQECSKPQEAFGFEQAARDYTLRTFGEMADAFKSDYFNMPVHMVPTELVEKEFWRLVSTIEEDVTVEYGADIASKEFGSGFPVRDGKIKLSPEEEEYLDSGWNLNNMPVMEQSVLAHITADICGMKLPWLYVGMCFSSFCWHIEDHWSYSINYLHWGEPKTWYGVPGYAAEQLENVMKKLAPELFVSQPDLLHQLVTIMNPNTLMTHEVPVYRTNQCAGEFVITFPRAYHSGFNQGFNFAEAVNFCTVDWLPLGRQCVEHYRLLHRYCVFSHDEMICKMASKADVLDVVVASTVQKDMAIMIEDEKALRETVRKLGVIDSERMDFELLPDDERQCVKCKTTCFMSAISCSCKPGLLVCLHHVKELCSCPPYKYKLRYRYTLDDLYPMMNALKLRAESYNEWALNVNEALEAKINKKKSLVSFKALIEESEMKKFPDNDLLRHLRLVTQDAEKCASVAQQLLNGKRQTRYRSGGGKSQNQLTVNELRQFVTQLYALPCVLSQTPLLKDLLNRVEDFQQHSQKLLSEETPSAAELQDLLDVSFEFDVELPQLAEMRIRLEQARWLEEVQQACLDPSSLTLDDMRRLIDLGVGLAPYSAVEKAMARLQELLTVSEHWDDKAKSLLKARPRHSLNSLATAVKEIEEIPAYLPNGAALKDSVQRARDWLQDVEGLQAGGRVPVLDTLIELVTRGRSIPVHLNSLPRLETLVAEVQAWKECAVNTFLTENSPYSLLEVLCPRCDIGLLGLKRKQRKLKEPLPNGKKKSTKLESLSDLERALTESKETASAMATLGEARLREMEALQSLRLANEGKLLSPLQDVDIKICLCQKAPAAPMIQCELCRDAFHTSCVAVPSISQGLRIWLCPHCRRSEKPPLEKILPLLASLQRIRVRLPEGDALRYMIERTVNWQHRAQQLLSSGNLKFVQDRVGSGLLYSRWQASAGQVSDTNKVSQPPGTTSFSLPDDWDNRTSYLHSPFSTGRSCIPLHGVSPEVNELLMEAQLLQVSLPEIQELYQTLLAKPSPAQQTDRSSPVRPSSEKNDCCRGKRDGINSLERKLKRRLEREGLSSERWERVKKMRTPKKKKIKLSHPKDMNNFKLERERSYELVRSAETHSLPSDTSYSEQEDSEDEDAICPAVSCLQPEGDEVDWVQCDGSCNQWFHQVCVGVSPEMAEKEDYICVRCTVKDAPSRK
How it was run: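 KDM5BΔAP (200 nM final) in 50 mM HEPES pH 7.5, 0.01% Tween-20 was preincubated 10 min at RT with compound over a concentration range. Substrate mix (H3K4me3 12.5 µM, α-KG 25 µM, Fe²⁺, ascorbate, NAD⁺, FDH) was added, and NADH fluorescence change over 30 min gave dose-response curves.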
`Cc1cc(Nc2cccc(Cl)c2)nc2ccc(NC(=O)Cc3cccc(C(F)(F)F)c3)cc12` was tested, and the Potency was inconclusive: 31.6 µM [inhibitor, partial curve, poor fit]. `COc1ccc(Cn2c(=O)c3oc4ccccc4c3n(Cc3ccc(F)cc3)c2=O)cc1` was tested, and the Potency was inconclusive: 7.94 µM [inhibitor, partial curve, poor fit]. `CC(C)(CNC(=O)C1(c2ccc(F)cc2)CCC1)C(N)=O` was tested, and the Potency was “inactive”. `O=C(c1cc2cc(F)ccc2[nH]1)N(Cc1ccco1)Cc1ccco1` was tested, and the Potency was inconclusive: 25.1 µM [inhibitor, single point]. For `O=C(Cc1c[nH]c2ncc(-c3ccccc3Oc3ccccc3)cc12)N1CCOCC1`, the Potency was inconclusive: 28.2 µM [inhibitor, partial curve, poor fit]. In the case of `COc1cc(NC(=O)CSc2ncc(S(=O)(=O)c3ccc(Br)cc3)c(=O)[nH]2)cc(OC)c1`, the Potency is reported as inconclusive: 35.5 µM [inhibitor, single point]. `CC(C)CCNC(=O)c1cc2n(n1)CC(c1ccc3c(c1)OCO3)OC2` (configuration not stated) was tested, and the Potency was inconclusive: 22.4 µM [inhibitor, partial curve]. In the case of `Cc1cccc(NC(=O)C(=O)NCC(c2ccc3c(c2)OCO3)N2CCN(C)CC2)c1C` (configuration not stated), the Potency is reported as “inactive”. `O=C(c1nnc(COc2ccc3cnccc3c2)n1-c1ccccc1)N1CCC[C@@H]1c1cccc(F)c1` was tested, and the Potency was inconclusive: 22.4 µM [inhibitor, partial curve]. For `O=C(CSc1nc2ccccc2o1)OCC(=O)c1ccc(Br)cc1`, the Potency was “inactive”. For `COc1cc(-c2ccc(Nc3ccccc3C(=O)O)c(OC)c2)ccc1Nc1ccccc1C(=O)O`, the Potency was inconclusive: 25.1 µM [inhibitor, single point]. `CC(C)(C)c1cc(C(c2cccs2)c2c[nH]c3ccccc23)cc(C(C)(C)C)c1O` (configuration not stated) was tested, and the Potency was inconclusive: 15.8 µM [inhibitor, partial curve, poor fit]. In the case of `COc1cccc([S+](=O)([O-])N2CCCC(c3nnc4n3C(C(=O)O)CC4)C2)c1` (configuration not stated), the Potency is reported as “inactive”. In the case of `Cc1ccc(Cl)cc1NC(=O)N(C)Cc1nc(-c2ccccc2C)oc1C`, the Potency is reported as “inactive”. With `COc1ccc(S(=O)(=O)N2CCc3c(C(=O)NC4CC4)cccc32)cc1` the Potency was “inactive”. For `Cc1ccc(-c2cnc(CCC(=O)Nc3cccc(F)c3)o2)cc1C`, the Potency was inconclusive: 39.8 µM [inhibitor, single point]. For `O=C(c1ccncc1)N1CCC2(CC1)CC(N(Cc1ccc(F)cc1)C1CC1)CCO2` (configuration not stated), the Potency was active: 31.6 µM. `CCN(CC)S(=O)(=O)c1ccc2c(c1)N(CC(=O)N1CCN(c3ccc(F)cc3)CC1)C(=O)CO2` was tested, and the Potency was “inactive”. `CCOc1ccc(CCNC(=O)Cn2nc(-c3ccc(C)cc3)ccc2=O)cc1OCC` was tested, and the Potency was inconclusive: 3.98 µM [inhibitor, full curve, poor fit]. For `O=C(CCc1c[nH]c2ccccc12)Nc1ncccc1O`, the Potency was inconclusive: 39.8 µM [inhibitor, partial curve, poor fit]. `O=C(Cn1ccc2c(Cl)cccc21)Nc1ccc(O)cc1` was tested, and the Potency was “inactive”. In the case of `CN1CCN(c2oc(-c3ccc(S(=O)(=O)N4CCCCCC4)cc3)nc2C#N)CC1`, the Potency is reported as “inactive”. `Cc1cccc(CSCc2ccc(-c3nc(-c4ccc(Br)cc4)no3)o2)c1` was tested, and the Potency was inconclusive: 39.8 µM [inhibitor, single point]. With `COc1ccc(NC(=O)N2CCN(Cc3nc(-c4cccc(C(F)(F)F)c4)no3)CC2)cc1` the Potency was “inactive”. For `CC(=O)NC1(C)CCN(Cc2ccc(-c3ccc4c(ccn4C)c3)cc2)C1` (configuration not stated), the Potency was inconclusive: 35.5 µM [inhibitor, single point]. `COc1ccc(CC(=O)Nc2nn(C)c3nc4c(C)cccc4cc23)cc1` was tested, and the Potency was inconclusive: 39.8 µM [inhibitor, single point]. `Cn1c(=O)c2[nH]c(-c3ccccc3Cl)nc2n(C)c1=O` was tested, and the Potency was inconclusive: 39.8 µM [inhibitor, single point]. In the case of `CC(C)CCNC(=O)c1ccc2c(c1)nc1n2CCCC1`, the Potency is reported as “inactive”. In the case of `Nc1nnc2c(n1)[nH]c1ccccc12`, the Potency is reported as inconclusive: 14.1 µM [inhibitor, partial curve, poor fit]. In the case of `CCOc1ccc(NC(=O)c2cc3c(N4CCSCC4)nc(C)cn3n2)cc1`, the Potency is reported as active: 3.98 µM. `CC(=O)Oc1ccc2c(C)c(CC(=O)NCCc3ccc(Cl)cc3)c(=O)oc2c1OC(C)=O` was tested, and the Potency was “inactive”. For `CC(C)NC(=O)N[C@H]1CCN2C(=O)c3ccccc3NC(=O)[C@@H]2C1`, the Potency was inconclusive: 39.8 µM [inhibitor, single point]. With `COc1cc(CC(=O)Nc2sc3c(c2C(N)=O)CCCC3)cc(OC)c1OC` the Potency was inconclusive: 31.6 µM [inhibitor, single point]. In the case of `CC(C)CCN1CCC2(CC1)CN[S+](=O)([O-])c1cccnc1O2`, the Potency is reported as inconclusive: 100 µM [inhibitor, single point]. In the case of `COc1cccc(N2CCN(C(=O)c3ccc(Cn4c(=O)[nH]c5cc(OC)c(OC)cc5c4=O)cc3)CC2)c1`, the Potency is reported as inconclusive: 8.91 µM [inhibitor, partial curve, poor fit]. With `CC(C)CN(C(=O)CSc1nc(CN2CCOCC2)nc2ccccc12)C1CCS(=O)(=O)C1` (configuration not stated) the Potency was “inactive”. With `CN1CCN(CCCNC(=O)c2nc(-c3cccc4[nH]ccc34)no2)CC1` the Potency was inconclusive: 22.4 µM [inhibitor, partial curve, poor fit]. In the case of `CSc1ccc(-c2nc(CN3CCCC(CO)C3)c(C)o2)cc1` (configuration not stated), the Potency is reported as inconclusive: 31.6 µM [inhibitor, partial curve, poor fit]. For `CCc1cccc(NC(=O)Cn2c(=O)ccc3cc(S(=O)(=O)N4CCC(C)CC4)ccc32)c1`, the Potency was inconclusive: 22.4 µM [inhibitor, partial curve, poor fit]. In the case of `CCc1ccc(CNc2ncnc3c2nc2n3CCCC2)cc1`, the Potency is reported as inconclusive: 28.2 µM [inhibitor, single point]. With `O=C(NCc1nnc(SCC(=O)N2CCN(c3ccccc3)CC2)o1)c1ccc(F)cc1` the Potency was inconclusive: 39.8 µM [inhibitor, single point]. For `COCCNC(=O)c1ccc(OC2CCN(Cc3cccc4c3OCO4)CC2)c(Cl)c1`, the Potency was “inactive”.
